# Reference: paper PMC4081100
# This is a selection; strong and weak results do not stand in their true shares. For part of these data: At the low end of the ranking the order means little. The list shows a part of the results. For part of these data: Construct or isoform of the protein are uncertain.
# Assays:
# Assay in all cases: universal protein binding microarray (PBM)
# Conditions in all cases: transcription factors of Arabidopsis thaliana; high values mean tight binding; most listed sequences are background and not binding sites; double strand, one strand shown
# [1] = biological target: T1, GST-ANAC092(1-176) (UniProt Q9FKA0)
# T1 sequence: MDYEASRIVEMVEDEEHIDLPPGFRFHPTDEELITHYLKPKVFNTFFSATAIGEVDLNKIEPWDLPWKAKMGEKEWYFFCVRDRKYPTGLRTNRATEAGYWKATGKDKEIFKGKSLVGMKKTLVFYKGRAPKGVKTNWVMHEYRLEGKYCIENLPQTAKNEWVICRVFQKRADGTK
# [2] = biological target: GST-NTL6(1-168) (UniProt Q9SCK6)
# [3] = biological target: T2, GST-ANAC019 NAC domain (UniProt Q9C932)
# T2 sequence: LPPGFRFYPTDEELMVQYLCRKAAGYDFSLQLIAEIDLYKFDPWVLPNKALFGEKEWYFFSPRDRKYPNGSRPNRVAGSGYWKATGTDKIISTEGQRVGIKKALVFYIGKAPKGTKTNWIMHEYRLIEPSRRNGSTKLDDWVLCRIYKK
# [4] = biological target: T3, GST-ANAC055(1-171) (UniProt Q9LDY8)
# T3 sequence: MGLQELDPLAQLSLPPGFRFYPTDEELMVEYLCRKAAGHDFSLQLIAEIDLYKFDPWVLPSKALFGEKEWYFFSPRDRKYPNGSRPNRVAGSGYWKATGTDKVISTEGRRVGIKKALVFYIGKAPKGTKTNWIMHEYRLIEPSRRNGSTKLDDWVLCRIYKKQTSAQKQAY
# [5] = biological target: T4, GST-ATAF1 NAC domain (UniProt Q39013)
# T4 sequence: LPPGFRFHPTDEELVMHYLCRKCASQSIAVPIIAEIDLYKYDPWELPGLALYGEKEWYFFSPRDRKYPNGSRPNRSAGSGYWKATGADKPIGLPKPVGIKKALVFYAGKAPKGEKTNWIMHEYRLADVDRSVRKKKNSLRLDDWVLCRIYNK
# [6] = biological target: T5, GST-ANAC092(1-285) full length (UniProt Q9FKA0)
# T5 sequence: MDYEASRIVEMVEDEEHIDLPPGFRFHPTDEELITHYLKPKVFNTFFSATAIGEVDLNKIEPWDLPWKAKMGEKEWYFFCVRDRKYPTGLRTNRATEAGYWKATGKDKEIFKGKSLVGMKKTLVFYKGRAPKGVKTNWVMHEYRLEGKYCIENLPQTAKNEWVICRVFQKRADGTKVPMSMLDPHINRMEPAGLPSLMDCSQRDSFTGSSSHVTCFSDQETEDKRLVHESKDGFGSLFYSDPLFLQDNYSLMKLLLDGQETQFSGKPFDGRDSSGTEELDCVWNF
# [7] = biological target: T6, GST-NAP(1-166) (UniProt O49255)
# T6 sequence: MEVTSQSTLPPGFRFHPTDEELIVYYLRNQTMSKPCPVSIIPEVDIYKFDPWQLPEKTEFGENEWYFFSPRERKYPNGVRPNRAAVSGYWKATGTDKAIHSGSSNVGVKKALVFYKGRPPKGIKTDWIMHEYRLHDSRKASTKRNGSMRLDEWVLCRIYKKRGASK
# [8] = biological target: T7, GST-NST2(1-184) (UniProt Q9M274)
# T7 sequence: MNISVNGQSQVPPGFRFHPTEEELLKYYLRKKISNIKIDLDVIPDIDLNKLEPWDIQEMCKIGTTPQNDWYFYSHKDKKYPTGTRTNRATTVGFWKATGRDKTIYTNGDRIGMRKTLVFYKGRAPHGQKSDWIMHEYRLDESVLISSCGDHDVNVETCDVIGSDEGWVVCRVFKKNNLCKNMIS
# [9] = biological target: T8, GST-NTL8 NAC domain (UniProt Q9XIN7)
# T8 sequence: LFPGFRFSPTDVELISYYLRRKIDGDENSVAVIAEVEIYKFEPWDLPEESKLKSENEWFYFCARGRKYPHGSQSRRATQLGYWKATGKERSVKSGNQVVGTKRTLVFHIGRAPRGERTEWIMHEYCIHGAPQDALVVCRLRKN
# [10] = biological target: T9, GST-SND1(1-203) (UniProt Q9LPI7)
# T9 sequence: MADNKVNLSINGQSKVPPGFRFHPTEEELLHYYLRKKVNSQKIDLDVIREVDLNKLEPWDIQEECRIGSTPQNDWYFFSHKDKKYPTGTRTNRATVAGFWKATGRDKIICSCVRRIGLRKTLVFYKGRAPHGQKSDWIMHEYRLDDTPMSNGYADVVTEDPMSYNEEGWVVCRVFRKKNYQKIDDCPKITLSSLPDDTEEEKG
# [11] = biological target: T10, GST-VND3 NAC domain (UniProt Q9FH59)
# T10 sequence: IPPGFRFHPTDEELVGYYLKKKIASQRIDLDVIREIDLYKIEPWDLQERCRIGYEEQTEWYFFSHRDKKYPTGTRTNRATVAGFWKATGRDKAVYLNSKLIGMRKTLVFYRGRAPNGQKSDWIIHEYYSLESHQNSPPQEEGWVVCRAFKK
# [12] = biological target: T11, GST-VND7 NAC domain (UniProt Q9C8W9)
# T11 sequence: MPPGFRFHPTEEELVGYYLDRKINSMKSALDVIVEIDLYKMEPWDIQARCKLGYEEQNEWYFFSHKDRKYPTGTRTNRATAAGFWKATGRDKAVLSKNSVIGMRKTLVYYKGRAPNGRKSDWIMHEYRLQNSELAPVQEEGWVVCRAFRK
# [13] = biological target: T12, GST-VOZ2 (Arabidopsis thaliana) (UniProt Q9SLB9)
# T12 sequence: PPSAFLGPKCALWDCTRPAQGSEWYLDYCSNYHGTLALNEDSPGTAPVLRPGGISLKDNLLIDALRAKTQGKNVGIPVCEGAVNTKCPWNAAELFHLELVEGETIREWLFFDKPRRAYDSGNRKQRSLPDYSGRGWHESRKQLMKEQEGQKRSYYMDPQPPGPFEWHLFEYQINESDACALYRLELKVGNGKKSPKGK
Sequence,binding signal [1] [E-score],binding signal [2] [E-score],binding signal [3] [E-score],binding signal [4] [E-score],binding signal [5] [E-score],binding signal [6] [E-score],binding signal [7] [E-score],binding signal [8] [E-score],binding signal [9] [E-score],binding signal [10] [E-score],binding signal [11] [E-score],binding signal [12] [E-score],binding signal [13] [E-score]
CTGACCGC,0.0725,-0.0105,-0.0156,-0.105,-0.132,-0.159,-0.0351,-0.00185,0.0212,-0.0625,-0.0998,-0.0223,0.12
GTCGGTCA,-0.211,-0.224,-0.0708,-0.244,-0.198,-0.182,-0.0786,-0.202,-0.0472,-0.203,-0.104,-0.0815,-0.109
GTAGGTCA,-0.00958,0.0465,0.129,0.0231,0.0257,-0.122,-0.0203,-0.0508,0.0647,-0.0864,-0.0467,-0.0325,-0.0017
AGCGGTCA,-0.112,-0.105,-0.0478,-0.15,-0.177,-0.143,-0.163,-0.0737,-0.0464,-0.175,-0.0439,-0.18,-0.0895
CGGAGTCA,-0.0437,-0.0351,-0.00177,-0.00443,-0.174,-0.166,-0.133,0.027,-0.056,-0.00842,-0.068,-0.153,-0.0476
AAGTCAGT,-0.0128,0.00135,0.0478,-0.0895,-0.0318,-0.132,-0.127,-0.0633,-0.0659,0.0862,-0.012,-0.0963,-0.0638
CCGCTGAC,-0.0506,-0.0896,0.0159,-0.11,-0.0221,-0.0768,-0.0205,-0.143,0.0147,-0.0352,-0.105,-0.0724,-0.0116
AGGGTCAG,-0.106,-0.113,-0.103,-0.252,-0.203,-0.13,-0.0956,-0.151,-0.0281,-0.0415,-0.151,-0.191,-0.0594
GTCAGCAA,-0.0305,-0.0148,-0.00771,-0.065,-0.0953,-0.066,-0.0489,0.00323,-0.0618,0.0171,-0.0408,-0.092,-0.0687
CCGTCAAC,-0.0273,-0.117,0.0816,-0.0299,0.0117,-0.106,0.0218,-0.155,-0.146,-0.0269,-0.0797,-0.0789,0.0288
CATTGACC,-0.000285,0.00504,0.00368,-0.0766,-0.084,-0.122,-0.0046,-0.0993,-0.0557,-0.0933,-0.163,-0.131,0.0718
AGTCTTCG,0.0396,-0.00642,-0.0496,-0.0577,-0.0171,-0.0974,-0.222,-0.0263,0.0456,-0.0186,-0.00458,0.0363,-0.123
CTCTGACC,-0.112,-0.0495,-0.0729,-0.153,-0.193,-0.197,-0.088,-0.0647,0.00462,-0.0615,-0.148,-0.0609,-0.078
CTGACTTA,-0.0863,0.195,-0.0879,-0.0487,-0.163,-0.0235,-0.0554,0.0499,-0.121,-0.0138,-0.0115,-0.097,-0.12
TATGACCA,-0.0882,-0.0443,-0.0807,-0.143,-0.114,-0.0497,-0.00856,-0.194,-0.0429,-0.137,0.117,-0.0257,-0.104
TCGTCAAA,-0.0638,0.0382,0.0342,0.0878,0.0946,-0.00687,-0.0206,0.0744,-0.0352,0.0486,0.00649,-0.0877,0.16
AAGTCCAC,-0.0394,-0.0748,-0.0278,-0.0456,-0.0728,-0.12,-0.0155,0.0239,0.00945,-0.0368,-0.148,-0.0776,-0.112
ATGCTGAC,-0.0602,0.0493,-0.149,0.0377,0.0238,3e-05,-0.043,-0.0414,-0.0521,0.0028,-0.0556,-0.0548,-0.0438
ATTGACTC,-0.107,0.0232,-0.0576,-0.0405,-0.177,-0.0827,-0.0325,0.0173,-0.0178,-0.05,0.0459,-0.0595,-0.103
GCTCTGAC,-0.0111,-0.137,-0.013,-0.105,-0.133,-0.166,-0.035,-0.0721,-0.0778,-0.00724,-0.151,-0.0672,-0.0618
CGCTGACC,-0.0824,-0.0487,0.00274,-0.151,-0.122,-0.159,-0.051,-0.173,0.024,-0.0937,-0.153,-0.0342,0.0216
TCCGGTCA,-0.126,-0.24,-0.0138,-0.0981,-0.0161,-0.0282,-0.0415,-0.0983,-0.0714,-0.103,-0.245,-0.0405,-0.0204
ATGGGTCA,-0.189,-0.0203,-0.172,-0.112,-0.108,-0.085,,-0.0465,-0.154,-0.178,-0.159,-0.198,0.0407
CGTTGACC,0.00874,-0.112,0.0797,0.0286,-0.0667,0.0428,,-0.081,,0.0105,-0.0758,0.0428,0.0277
GAAAGTCA,-0.03,0.0172,0.042,0.0337,,0.0781,-0.117,-0.0272,0.0471,-0.11,0.0237,0.0313,-0.107
